Measurements published in the supplement of paper PMC12217912.
The other results are listed elsewhere or left out. Sequences were assembled here from the parent chain. Inactive controls read about 0.05.

B1: TEV protease; numbered along this chain (parent)
chain: MGESLFKGPRDYNPISSSICHLTNESDGHTTSLYGIGFGPFIITNKHLFRRNNGTLVVQSLHGVFKVKDTTTLQQHLVDGRDMIIIRMPKDFPPFPQKLKFREPQREERICLVTTNFQTKSMSSMVSDTSCTFPSGDGIFWKHWIQTKDGQCGSPLVSTRDGFIVGIHSASNFTNTNNYFTSVPKNFMELLTNQEAQQWVSGWRLNADSVLWGGHKVFMVKPEEPFQPVKEATQL

Variants of: B1
Assay: raw area under fraction-flipped curve 0-4 h after induction (AUC4h, not background-subtracted), DNA-recorder readout of cleavage of the substrate (dimensionless); higher = more cleavage of the substrate by the protease variant
Settings: temperature: 34 °C; time window: 0-4 h after rhamnose induction
Protocol: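 In vivo DNA recorder in E. coli TOP10(DE3) ΔrhaA at 34 °C. Each TEVp single-site mutant (parent TEVp 0) is paired with a single-site variant of the 7-mer TEVs (canonical ENLYFQ|S). The substrate sits between flexible linkers in a Bxb1-sfGFP-TEVs-SsrA fusion, so cleavage stabilises Bxb1 and speeds flipping of a recombination array, read by NGS. The value is the raw area under the fraction-flipped curve over 0-4 h after rhamnose induction (AUC4h), with ≥20 reads per time point. It is not background-subtracted; inactive controls average about 0.047.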
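Note: Bxb1 expression induced with 0.2% (w/v) L-rhamnose at OD600 near 0.5, cultures sampled hourly, flipped fraction per protease–substrate barcode pair counted by paired-end Illumina sequencing.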

Variant	area with substrate EALYFQS	area with substrate ECLYFQS	area with substrate EFLYFQS	area with substrate EGLYFQS	area with substrate EILYFQS	area with substrate EKLYFQS	area with substrate EMLYFQS	area with substrate EPLYFQS	area with substrate EQLYFQS	area with substrate ERLYFQS	area with substrate ESLYFQS	area with substrate EVLYFQS	area with substrate EYLYFQS	area with substrate EHLYFQS	area with substrate ELLYFQS	area with substrate EWLYFQS	area with substrate EELYFQS	area with substrate ETLYFQS	area with substrate EDLYFQS
MGESLFKGPRDYNPISSSICHLTNESDGHTTSLYGIGFGPFIITNKHLFRRNNGTLVVQSLHGVFKVKDTTTLQEHLVDGRDMIIIRMPKDFPPFPQKLKFREPQREERICLVTTNFQTKSMSSMVSDTSCTFPSGDGIFWKHWIQTKDGQCGSPLVSTRDGFIVGIHSASNFTNTNNYFTSVPKNFMELLTNQEAQQWVSGWRLNADSVLWGGHKVFMVKPEEPFQPVKEATQL [Q75E]	0.0749	0.0704	0.0861	0.0595	0.0668	0.0646	0.0762	0.0786	0.0658	0.0758	0.073	0.0648	0.0664						
MGESLFKGPRDYNPISSSICHLTNESDGHTTSLYGIGFGPFIITNKHLFRRNNGTLVVQSLHGVFKVKDTTTLQWHLVDGRDMIIIRMPKDFPPFPQKLKFREPQREERICLVTTNFQTKSMSSMVSDTSCTFPSGDGIFWKHWIQTKDGQCGSPLVSTRDGFIVGIHSASNFTNTNNYFTSVPKNFMELLTNQEAQQWVSGWRLNADSVLWGGHKVFMVKPEEPFQPVKEATQL [Q75W]	0.0625	0.0604		0.0654	0.0633		0.0704	0.0597	0.0683		0.0769		0.0621	0.101	0.0732	0.0826			
MGESLFKGPRDYNPISSSICHLTNESDGHTTSLYGIGFGPFIITNKHLFRRNNGTLVVQSLHGVFKVKDTTTLQAHLVDGRDMIIIRMPKDFPPFPQKLKFREPQREERICLVTTNFQTKSMSSMVSDTSCTFPSGDGIFWKHWIQTKDGQCGSPLVSTRDGFIVGIHSASNFTNTNNYFTSVPKNFMELLTNQEAQQWVSGWRLNADSVLWGGHKVFMVKPEEPFQPVKEATQL [Q75A]	0.159			0.0914		0.0921			0.124	0.0979	0.0891	0.0898				0.175	0.114		
MGESLFKGPRDYNPISSSICHLTNESDGHTTSLYGIGFGPFIITNKHLFRRNNGTLVVQSLHGVFKVKDTTTLQQHLVMGRDMIIIRMPKDFPPFPQKLKFREPQREERICLVTTNFQTKSMSSMVSDTSCTFPSGDGIFWKHWIQTKDGQCGSPLVSTRDGFIVGIHSASNFTNTNNYFTSVPKNFMELLTNQEAQQWVSGWRLNADSVLWGGHKVFMVKPEEPFQPVKEATQL [D79M]	0.102	0.0887			0.0854		0.0922	0.105		0.0941	0.0931	0.069	0.0714	0.0866		0.072	0.116	0.0876	
MGESLFKGPRDYNPISSSICHLTNESDGHTTSLYGIGFGPFIITNKHLFRRNNGTLVVQSLHGVFKVKDTTTLQQHLVTGRDMIIIRMPKDFPPFPQKLKFREPQREERICLVTTNFQTKSMSSMVSDTSCTFPSGDGIFWKHWIQTKDGQCGSPLVSTRDGFIVGIHSASNFTNTNNYFTSVPKNFMELLTNQEAQQWVSGWRLNADSVLWGGHKVFMVKPEEPFQPVKEATQL [D79T]	0.0853	0.0721			0.0833		0.0016	0.127	0.0985		0.0602	0.0776	0.118						0.117
MGESLFKGPRDYNPISSSICHLTNESDGHTTSLYGIGFGPFIITNKHLFRRNNGTLVVQSLHGVFKVKDTTTLQQHLVWGRDMIIIRMPKDFPPFPQKLKFREPQREERICLVTTNFQTKSMSSMVSDTSCTFPSGDGIFWKHWIQTKDGQCGSPLVSTRDGFIVGIHSASNFTNTNNYFTSVPKNFMELLTNQEAQQWVSGWRLNADSVLWGGHKVFMVKPEEPFQPVKEATQL [D79W]	0.0765		0.112	0.102	0.0817			0.104	0.109	0.083	0.0947	0.0728	0.116					0.0982	0.0918
MGESLFKGPRDYNPISSSICHLTNESDGHTTSLYGIGFGPFIITNKHLFRRNNGTLVVQSLHGVFKVKDTTTLQQHLVFGRDMIIIRMPKDFPPFPQKLKFREPQREERICLVTTNFQTKSMSSMVSDTSCTFPSGDGIFWKHWIQTKDGQCGSPLVSTRDGFIVGIHSASNFTNTNNYFTSVPKNFMELLTNQEAQQWVSGWRLNADSVLWGGHKVFMVKPEEPFQPVKEATQL [D79F]	0.0988				0.0752		0.108	0.0849			0.0888	0.0916	0.0937			0.0841	0.0829		0.139
MGESLFKGPRDYNPISSSICHLTNESDGHTTSLYGIGFGPFIITNKHLFRRNNGTLVVQSLHGVFKVKDTTTLQQHLVSGRDMIIIRMPKDFPPFPQKLKFREPQREERICLVTTNFQTKSMSSMVSDTSCTFPSGDGIFWKHWIQTKDGQCGSPLVSTRDGFIVGIHSASNFTNTNNYFTSVPKNFMELLTNQEAQQWVSGWRLNADSVLWGGHKVFMVKPEEPFQPVKEATQL [D79S]	0.0986	0.143	0.093	0.0843	0.0903	0.102	0.0926	0.108		0.083	0.104	0.0846			0.0886	0.0723	0.123	0.1	
MGESLFKGPRDYNPISSSICHLTNESDGHTTSLYGIGFGPFIITNKHLFRRNNGTLVVQSLHGVFKVKDTTTLQQHLVKGRDMIIIRMPKDFPPFPQKLKFREPQREERICLVTTNFQTKSMSSMVSDTSCTFPSGDGIFWKHWIQTKDGQCGSPLVSTRDGFIVGIHSASNFTNTNNYFTSVPKNFMELLTNQEAQQWVSGWRLNADSVLWGGHKVFMVKPEEPFQPVKEATQL [D79K]	0.0954	0.0996	0.08		0.103	0.0926	0.105	0.0969	0.0723	0.09	0.101		0.081	0.0822			0.12		
MGESLFKGPRDYNPISSSICHLTNESDGHTTSLYGIGFGPFIITNKHLFRRNNGTLVVQSLHGVFKVKDRTTLQQHLVDGRDMIIIRMPKDFPPFPQKLKFREPQREERICLVTTNFQTKSMSSMVSDTSCTFPSGDGIFWKHWIQTKDGQCGSPLVSTRDGFIVGIHSASNFTNTNNYFTSVPKNFMELLTNQEAQQWVSGWRLNADSVLWGGHKVFMVKPEEPFQPVKEATQL [T70R]	0.0664	0.0815		0.0603	0.0552		0.0835			0.0802	0.0566		0.0626		0.051	0.0723			
